At least one compound was matched to its structure with a doubt left.
Target: T1, full-length hSIRT1 N226A (Homo sapiens, UniProt Q96EB6, N226A)
T1 construct: The following point mutants of full-length hSIRT1 were generated; His6 (C); made in house
T1 sequence (Q96EB6 1-747 N226A): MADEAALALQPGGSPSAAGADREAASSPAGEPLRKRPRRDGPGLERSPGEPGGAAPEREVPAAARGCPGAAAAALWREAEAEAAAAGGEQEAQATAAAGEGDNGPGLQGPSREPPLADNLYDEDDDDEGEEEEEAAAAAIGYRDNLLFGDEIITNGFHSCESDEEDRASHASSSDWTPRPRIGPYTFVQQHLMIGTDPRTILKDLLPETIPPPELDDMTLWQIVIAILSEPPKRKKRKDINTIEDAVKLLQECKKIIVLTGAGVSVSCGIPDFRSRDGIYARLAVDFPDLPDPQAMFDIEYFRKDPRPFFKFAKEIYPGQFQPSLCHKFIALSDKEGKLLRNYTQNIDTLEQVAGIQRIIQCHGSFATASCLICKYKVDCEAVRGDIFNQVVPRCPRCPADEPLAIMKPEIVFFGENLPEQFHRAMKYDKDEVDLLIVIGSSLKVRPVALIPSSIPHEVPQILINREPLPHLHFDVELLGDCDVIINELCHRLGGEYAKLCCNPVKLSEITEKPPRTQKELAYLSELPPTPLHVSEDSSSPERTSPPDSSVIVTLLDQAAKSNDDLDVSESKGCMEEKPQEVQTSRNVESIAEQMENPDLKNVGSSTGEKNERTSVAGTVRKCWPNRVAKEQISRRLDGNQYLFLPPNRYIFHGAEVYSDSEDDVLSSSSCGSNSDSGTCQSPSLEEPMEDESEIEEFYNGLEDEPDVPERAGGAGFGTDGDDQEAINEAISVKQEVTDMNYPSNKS
Test: SIRT1 activation dose-response, OAcADPr assay with Ac-p53(W5) substrate
Format: biochemical

SMILES	RVmax (maximum activation, relative velocity at infinite activator concentration)
O=C(Nc1ccccn1)N1c2nc(-c3cccc(C(F)(F)F)c3)ccc2N2CC[C@H]1C2 [Example 7]	5.68
Cc1cnc2c(NC(=O)N3c4nc(-c5cccc(C(F)(F)F)c5)ccc4N4CC[C@H]3C4)cccc2n1 [Example 8]	4.95

— US9765075B2, “Substituted bridged urea analogs as sirtuin modulators” (GLAXOSMITHKLINE LLC, priority 2013, dated 2017)
